± gives the standard deviation of the averaged measurements. Some of the results follow.

The test system of this experiment is PfAP2-G AP2 domain (GST-tagged). Briefly: gcPBM binding intensity (ln(normalized median fluorescence intensity)); higher = stronger DNA binding. Put shortly:
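In this array assay, P. falciparum DNA-binding domains with a GST tag, expressed in E. coli, were applied for 1 h to primer-extended double-stranded 36-bp intergenic genomic probes and negative controls on an Agilent 4 × 180k array. Bound protein was visualised with Alexa488 anti-GST antibody at 488 nm. Binding intensity is the highest Masliner-normalised natural-log median intensity across replicate spots of either probe orientation.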
Consider “TATCACATATTATGATGTACAAAGATTCTGACTAAT [XGTACX_site2770]”, for which the “gcPBM binding intensity (ln)” value was 10.7 ± 0.47.

In the case of “AACACCAAACAAAGGTGTACATATAGGAAAAAATCT [XGTACX_site1006]”, the “gcPBM binding intensity (ln)” value was found to be 11.3 ± 0.81.

Take AGAGGGGAAAACATGATGCACTAGTATAACCAAGAA: the “gcPBM binding intensity (ln)” value was found to be 10.2 ± 0.14.

As for “TTTCCTTATAAAAATACACACAAACTTTCATTAAAA [CACACA_site5953]”, the “gcPBM binding intensity (ln)” value was 10.1 ± 0.11.

As to “TCATATTATTATATATGTACATACCAATATATTATA [XGTACX_site2988]”, the “gcPBM binding intensity (ln)” value was found to be 11.2 ± 0.79.

As for “TAGATATGTCTAAAAAGTACTTTCTATAACAATTCT [XGTACX_site6678]”, the “gcPBM binding intensity (ln)” value was found to be 10.8 ± 0.44.

On to “GAATGAATGATAAATTTTTTTTTCTTTTTTTTTTTG [CACACA_negctrl_site333]”, for which the “gcPBM binding intensity (ln)” value turned out to be 9.1 ± 0.35.

Turning to “AAAAAAAGAAAAAAAACACACACAAATATAAATAAA [CACACA_site8309]”, the “gcPBM binding intensity (ln)” value amounted to 9.73 ± 0.16.

Take “TATTAATTTCTTTTTTCTCATCACTTTCAAAATGAA [CACACA_negctrl_site1055]”: the “gcPBM binding intensity (ln)” value is 9.72 ± 0.071.

For “TTATGATCATTTATATGTACACATAATTTTTGTGCT [XGTACX_site5568]”, the “gcPBM binding intensity (ln)” value was 11.6 ± 0.85.

Turning to “GTTCAAATTCTTATACCTTTTTATTGAGCCATAATA [CACACA_negctrl_site210]”, the “gcPBM binding intensity (ln)” value is 9.965 ± 0.035.

Take “TGTTATATATATACAAACATACACATTTATAAACAA [TGCATGCA_negctrl_site235]”: the “gcPBM binding intensity (ln)” value was determined as 10.1 ± 0.19.

Take “AGCATATATTAAACATGTACATAAATATATTATATA [XGTACX_site1451]”: the “gcPBM binding intensity (ln)” value came out at 11.3 ± 0.55.

Regarding “GATTAAATCGATAATACACACTAAATGTAAAACATT [CACACA_site4248]”, the “gcPBM binding intensity (ln)” value turned out to be 10.01 ± 0.078.

On to “TTGTATTATTAAATTATAAAACCTATAATTATGGAT [GTGCAC_negctrl_site340]”, for which the “gcPBM binding intensity (ln)” value is 9.68 ± 0.099.

Regarding “TTATTTTTTTCAACAAGTACTAATACAAAATAAAAC [XGTACX_site6460]”, the “gcPBM binding intensity (ln)” value turned out to be 11.2 ± 0.83.

Turning to “TAATGATTATATGACTGTACATTTGTAGGTATAATT [XGTACX_site3373]”, the “gcPBM binding intensity (ln)” value was 10.9 ± 0.65.

In the case of “TGATAACTAAATACATGTACAAATTAAAAAGAAAAA [XGTACX_site3080]”, the “gcPBM binding intensity (ln)” value was found to be 11 ± 0.55.

For the sequence “TATACGTAATAATATGCACACAAATAAACTTTATAA [CACACA_site9166]”, the “gcPBM binding intensity (ln)” value was determined as 10.2 ± 0.12.

For the sequence “ACTAGTAAATTTATATGTACATATATATATATATAG [XGTACX_site2502]”, the “gcPBM binding intensity (ln)” value was found to be 11.4 ± 0.78.

On to “AAAAAAAATACATACATACACACATATATATATATA [CACACA_site912]”, for which the “gcPBM binding intensity (ln)” value is 9.98 ± 0.2.

On to “TCTTGGTATATTCAATATATGATTTATATAATTCAA [CACACA_negctrl_site818]”, for which the “gcPBM binding intensity (ln)” value came to 9.98 ± 0.2.

As to “ATTTATATATATCATACACACTAATATGTATATTAT [CACACA_site5816]”, the “gcPBM binding intensity (ln)” value is 9.835 ± 0.007.

As to “CATATTTATAAATATAAACACACAACATTATATGCA [CACACA_site9065]”, the “gcPBM binding intensity (ln)” value worked out at 10.06 ± 0.064.

As to “TTTAATTAATAATAATATAAATTGTTCTTTTTTTTT [GTGCAC_negctrl_site176]”, the “gcPBM binding intensity (ln)” value was found to be 9.32 ± 0.17.

With “GCAAAATAAAGAAGCACACAAAAATGAAATATATAT [CACACA_site3651]”, the “gcPBM binding intensity (ln)” value came to 9.985 ± 0.035.

Consider “TCAAACAAAAAAGAAACACACACTAATTAAATTTTC [CACACA_site1101]”, for which the “gcPBM binding intensity (ln)” value worked out at 9.72 ± 0.33.

“ACTCTCTTATATTAAACACACATATATATATGTATA [CACACA_site2703]”: the “gcPBM binding intensity (ln)” value worked out at 10.1 ± 0.18.

With “AATAATTTGAAGGTGATAGTATTACATGGGAAATCA [CACACA_negctrl_site301]”, the “gcPBM binding intensity (ln)” value stood at 10.08 ± 0.014.

On to “GTACATATAAATATTACACACATTTTCATTTTTAAC [CACACA_site1986]”, for which the “gcPBM binding intensity (ln)” value was 10.8 ± 0.35.

“AAATCGAACAAATTATGTACTAAAAAAAAAATTTAT [XGTACX_site6399]”: the “gcPBM binding intensity (ln)” value was 11.2 ± 0.67.

Regarding “GTGTAGGCAAAAAGTTGTACGCCTAAAATCTATATA [XGTACX_site8912]”, the “gcPBM binding intensity (ln)” value worked out at 11.7 ± 1.1.

As to “TGTATAGGTACAATAATTATAGAGTAATTGACATTA [GTGCAC_negctrl_site183]”, the “gcPBM binding intensity (ln)” value stood at 10.9 ± 0.67.

On to “TAAAAAGTATATGGTCGTACACTTTTGATTAATACA [XGTACX_site7804]”, for which the “gcPBM binding intensity (ln)” value was determined as 11.5 ± 0.76.

With “TTATATGCATCCAAAAAGGAATGTTTTTAGAGAATC [CACACA_negctrl_site1062]”, the “gcPBM binding intensity (ln)” value came out at 9.78 ± 0.099.

For the sequence “ATCTTTCGAACATGTACACACAGAAAAAAAAAAAAA [CACACA_site5393]”, the “gcPBM binding intensity (ln)” value amounted to 11.3 ± 1.

With “ATACACAAATGCATACGTACATATATATATATATAT [XGTACX_site3504]”, the “gcPBM binding intensity (ln)” value turned out to be 11.4 ± 0.79.

With “CATATAAGAATCTTCTGTACTTATAAGAAAAGACAT [XGTACX_site8135]”, the “gcPBM binding intensity (ln)” value was found to be 11.4 ± 0.87.

For the sequence “AAAAAAAAAAAAACAACACACAATGTTTTATTTTAC [CACACA_site1613]”, the “gcPBM binding intensity (ln)” value turned out to be 9.905 ± 0.021.

As for “TAAAACAAAATAACATGTACAAAAAAAAAAAAAAAA [XGTACX_site2915]”, the “gcPBM binding intensity (ln)” value was determined as 10.9 ± 0.83.

In the case of “ATGTAATATGTTCATGCATGTAAAATTACATTTAGA [TGCATGCA_site852]”, the “gcPBM binding intensity (ln)” value turned out to be 9.89 ± 0.11.

Take “AAAAAAAAATTAAAAACACACATATATATATATATA [CACACA_site1580]”: the “gcPBM binding intensity (ln)” value amounted to 9.9 ± 0.67.

Regarding “ATATCTATAATAAACACACAAATAGATATAACATAT [CACACA_site7702]”, the “gcPBM binding intensity (ln)” value is 10.02 ± 0.035.

Take TATATATATATATATGTGCACATTTATTGCCTTTGC: the “gcPBM binding intensity (ln)” value came out at 10.4 ± 0.45.

(Values after the supplement of paper PMC11417369.)
